Screen size: about 310,000 compounds; about 14,000 (4.5%) showed an effect of 50% or more. The effect is printed as a negative number. The list shows a part of the results.
Each molecule was assayed against human ether-à-go-go-related gene (hERG) potassium channel (human, UniProt Q12809) (assay: primary screen, population patch clamp on CHO cells stably expressing hERG).
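Also: peak tail current of the secondary pulse compared with the same well before compound.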

human ether-à-go-go-related gene (hERG) potassium channel, sequence (Q12809 whole entry, looked up): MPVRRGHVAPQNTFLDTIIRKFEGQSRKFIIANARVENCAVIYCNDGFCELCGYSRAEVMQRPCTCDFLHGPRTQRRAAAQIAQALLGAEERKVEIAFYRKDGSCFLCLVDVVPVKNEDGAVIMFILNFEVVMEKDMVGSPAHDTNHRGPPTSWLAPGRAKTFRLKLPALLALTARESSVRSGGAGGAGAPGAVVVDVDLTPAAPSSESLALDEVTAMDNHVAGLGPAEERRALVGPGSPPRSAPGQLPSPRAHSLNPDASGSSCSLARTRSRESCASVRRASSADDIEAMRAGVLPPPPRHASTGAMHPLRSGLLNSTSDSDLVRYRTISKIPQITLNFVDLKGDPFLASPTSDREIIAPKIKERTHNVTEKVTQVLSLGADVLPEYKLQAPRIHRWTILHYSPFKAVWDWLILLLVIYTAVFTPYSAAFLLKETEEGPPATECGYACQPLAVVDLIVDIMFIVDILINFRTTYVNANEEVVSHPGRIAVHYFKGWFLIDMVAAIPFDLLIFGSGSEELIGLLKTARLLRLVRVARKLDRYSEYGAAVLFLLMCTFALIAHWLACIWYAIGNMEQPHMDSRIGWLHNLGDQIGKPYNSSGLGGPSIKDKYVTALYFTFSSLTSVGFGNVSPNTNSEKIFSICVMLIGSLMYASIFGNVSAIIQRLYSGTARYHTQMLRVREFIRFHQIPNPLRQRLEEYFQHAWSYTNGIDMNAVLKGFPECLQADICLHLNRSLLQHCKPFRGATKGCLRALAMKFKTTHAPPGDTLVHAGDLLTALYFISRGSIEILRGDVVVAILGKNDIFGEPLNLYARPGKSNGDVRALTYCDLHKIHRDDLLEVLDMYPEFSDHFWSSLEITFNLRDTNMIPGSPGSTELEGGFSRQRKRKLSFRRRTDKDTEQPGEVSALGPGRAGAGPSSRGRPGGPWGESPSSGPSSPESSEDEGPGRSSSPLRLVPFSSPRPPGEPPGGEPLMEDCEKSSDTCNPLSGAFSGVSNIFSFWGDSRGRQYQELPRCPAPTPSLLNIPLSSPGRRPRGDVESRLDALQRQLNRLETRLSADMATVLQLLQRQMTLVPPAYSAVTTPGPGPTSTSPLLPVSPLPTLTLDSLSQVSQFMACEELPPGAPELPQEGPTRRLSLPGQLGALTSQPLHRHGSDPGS

Q: For `CCN(CC)C(=O)C(=O)N/N=C/c1ccc(C(=O)OC)cc1`, which “hERG current change (%, negative = inhibition) at 10uM” value is on record?
A: Its value is -30.8%.

Q: With `Cc1ccc(-c2cc(C(F)(F)F)n3nc(C(=O)NCCCn4ccnc4)cc3n2)cc1C` as the molecule, how does the “hERG current change (%, negative = inhibition) at 10uM” value read?
A: The value was -20.6%.

Q: Which “hERG current change (%, negative = inhibition) at 10uM” value does the source give for `COc1cc2c(c(OC)c1OC)-c1ccc(O)c(=O)cc1C(NC(C)=O)CC2` (stereo not drawn) here?
A: Its value is 13.7%.

Q: `Cn1cccc1/C=C1\SC(=O)N(c2ccccc2)C1=O` was tested. Which “hERG current change (%, negative = inhibition) at 10uM” value did it give?
A: Its value is 0.217%.

Q: For `COC(=O)CSc1ncnc2c1sc1nc3c(cc12)COC(C)(C)C3`, which “hERG current change (%, negative = inhibition) at 10uM” value is on record?
A: Its value is 23.5%.

Q: For `CCc1cc(-c2n[nH]c(CCC(=O)O)c2-c2nc3ccccc3n2C)c(O)cc1O`, which “hERG current change (%, negative = inhibition) at 10uM” value is on record?
A: The value was 11.2%.

Q: With `O=C(O)c1ccc(CSc2nnc(-c3ccc(Cl)cc3)o2)cc1` as the molecule, how does the “hERG current change (%, negative = inhibition) at 10uM” value read?
A: The value was 26.5%.

Q: For `COCCn1nnnc1CN1CCN(C(=O)c2ccco2)CC1`, which “hERG current change (%, negative = inhibition) at 10uM” value is on record?
A: The value was 9.58%.

Q: With `COc1cccc(COC(=O)c2ccc3c(=O)n4c(nc3c2)CCC4)c1OC` as the molecule, how does the “hERG current change (%, negative = inhibition) at 10uM” value read?
A: Its value is 11.6%.

Q: For `O=[N+]([O-])c1ccc2nc(CCCO)[nH]c2c1`, which “hERG current change (%, negative = inhibition) at 10uM” value is on record?
A: Its value is 13.8%.

Q: How did the “hERG current change (%, negative = inhibition) at 10uM” value turn out when `CCCCCC(=O)NNC(=S)NC(=O)c1cccc([N+](=O)[O-])c1` was run?
A: The value was 19%.

Q: With `Cc1cc(C)n(/N=C/c2cc(Cl)cc(Cl)c2O)c(=O)c1` as the molecule, how does the “hERG current change (%, negative = inhibition) at 10uM” value read?
A: The value was 8.88%.

Q: How did the “hERG current change (%, negative = inhibition) at 10uM” value turn out when `Cc1ccc(SCC(=O)NC2CCS(=O)(=O)C2)cc1C` (stereo not drawn) was run?
A: Its value is 7.98%.

Q: For `Cc1ccc(-n2c(-c3cccnc3)n[nH]c2=S)c(C)c1`, which “hERG current change (%, negative = inhibition) at 10uM” value is on record?
A: Its value is 0.148%.

Q: For `O=C1CSC(c2cccnc2)N1Cc1ccc(Cl)cc1` (stereo not drawn), which “hERG current change (%, negative = inhibition) at 10uM” value is on record?
A: The value was 1.89%.

Q: For `O=C(CSc1n[nH]c(-c2cc(Cl)ccc2Cl)n1)NCCN1C(=O)CSC1=O`, which “hERG current change (%, negative = inhibition) at 10uM” value is on record?
A: Its value is 4.27%.

Q: `O=C(COc1ccc(Cl)cc1)N1CCCCCCC1` was tested. Which “hERG current change (%, negative = inhibition) at 10uM” value did it give?
A: Its value is -12.2%.

Q: How did the “hERG current change (%, negative = inhibition) at 10uM” value turn out when `O=C(COC(=O)c1cccnc1Cl)NCCCc1ccccc1` was run?
A: The value was -21.7%.

Q: With `O=C(Nc1ccc(Cl)c(Cl)c1)OCc1cncs1` as the molecule, how does the “hERG current change (%, negative = inhibition) at 10uM” value read?
A: Its value is -9.6%.

Q: How did the “hERG current change (%, negative = inhibition) at 10uM” value turn out when `O=C(CN1C(=O)c2ccccc2S1(=O)=O)NCCSCc1cccc(Cl)c1` was run?
A: The value was 2.86%.

Q: How did the “hERG current change (%, negative = inhibition) at 10uM” value turn out when `COc1ccc(/C=C/C(=O)NC(=S)Nc2ccccn2)cc1` was run?
A: The value was 10.7%.

Q: How did the “hERG current change (%, negative = inhibition) at 10uM” value turn out when `CCc1ccc(/C=N/NC(=O)c2cc(-c3ccccc3OC)nc3ccccc23)s1` was run?
A: Its value is 9.69%.

Q: How did the “hERG current change (%, negative = inhibition) at 10uM” value turn out when `CCC1CCCCN1c1nc(-c2cccc(OC)c2O)nc2ccccc12` (stereo not drawn) was run?
A: The value was 9.2%.

Q: `CC(=O)c1sc(NC(=O)c2ccco2)nc1-c1ccccc1` was tested. Which “hERG current change (%, negative = inhibition) at 10uM” value did it give?
A: Its value is 19.4%.

Q: Which “hERG current change (%, negative = inhibition) at 10uM” value does the source give for `OC12CCCCC1C(c1ccc3c(c1)OCO3)N(Cc1ccc(F)cc1)CC2` (stereo not drawn) here?
A: Its value is -22.7%.

Q: `CS(=O)(=O)CCC(C(=O)N1CCOCC1)N1C(=O)c2cc(Cl)c(Cl)cc2C1=O` (stereo not drawn) was tested. Which “hERG current change (%, negative = inhibition) at 10uM” value did it give?
A: Its value is 4.86%.

Q: `CCCn1c2ccccc2c2cnn(CC(=O)NCCOC)c(=O)c21` was tested. Which “hERG current change (%, negative = inhibition) at 10uM” value did it give?
A: The value was -5.71%.

Q: Which “hERG current change (%, negative = inhibition) at 10uM” value does the source give for `COc1ccc(CCNC(=O)c2ccc(CN3CCOCC3)cc2)cc1` here?
A: Its value is -7.5%.

Q: `COc1ccc(OCc2n[nH]c(=S)n2-c2ccc(C)cc2)cc1` was tested. Which “hERG current change (%, negative = inhibition) at 10uM” value did it give?
A: Its value is 0.659%.

Q: Which “hERG current change (%, negative = inhibition) at 10uM” value does the source give for `COCCCNC(=O)CSc1nc2cc(C(=O)NCCOC)ccc2c(=O)n1Cc1ccc2c(c1)OCO2` here?
A: Its value is -4.37%.

Q: Which “hERG current change (%, negative = inhibition) at 10uM” value does the source give for `O=P(O)(O)c1cc(-c2ccccc2)oc1-c1ccccc1` here?
A: Its value is -9.94%.

Q: `O=C(COc1ccc2c3c(c(=O)oc2c1)CCC3)NCC1CCC(C(=O)O)CC1` (stereo not drawn) was tested. Which “hERG current change (%, negative = inhibition) at 10uM” value did it give?
A: Its value is 16.1%.

Q: With `Cc1ccc(Cn2ccc(NC(=O)c3nn(C)cc3Cl)n2)cc1` as the molecule, how does the “hERG current change (%, negative = inhibition) at 10uM” value read?
A: Its value is -8.14%.

Q: `Cc1ccc(-n2c(=O)c3sccc3n(CC(=O)N3CCCC3)c2=O)cc1` was tested. Which “hERG current change (%, negative = inhibition) at 10uM” value did it give?
A: Its value is -7.83%.

Q: `CCC(=O)Nc1c(C)n[nH]c1C` was tested. Which “hERG current change (%, negative = inhibition) at 10uM” value did it give?
A: Its value is 14.6%.

Q: How did the “hERG current change (%, negative = inhibition) at 10uM” value turn out when `CSc1ccc(C(=O)C2CCCN(C(=O)Cc3nonc3C)C2)cc1` (stereo not drawn) was run?
A: Its value is -2.13%.

Q: `CC(=O)c1ccc(NC(=O)c2cccc(NC(=O)c3ccccc3)c2)cc1` was tested. Which “hERG current change (%, negative = inhibition) at 10uM” value did it give?
A: The value was 2.17%.

Q: For `Cc1cc(C)c2oc(C(=O)N(Cc3ccccc3)C3CCS(=O)(=O)C3)cc(=O)c2c1` (stereo not drawn), which “hERG current change (%, negative = inhibition) at 10uM” value is on record?
A: Its value is -14.3%.

Q: For `COC1CCCN(C(=O)c2cccc(OC3CCN(S(=O)(=O)N(C)C)CC3)c2)C1` (stereo not drawn), which “hERG current change (%, negative = inhibition) at 10uM” value is on record?
A: Its value is 16.1%.

Q: For `CC(=O)c1ccc(OCc2cc(C(=O)N(C)CCN3CCOCC3)no2)cc1`, which “hERG current change (%, negative = inhibition) at 10uM” value is on record?
A: Its value is 14.9%.

Q: With `CCN(C(=O)/C=C/c1cc(OC)c(OC)c(OC)c1)C1CCCCC1` as the molecule, how does the “hERG current change (%, negative = inhibition) at 10uM” value read?
A: The value was -0.894%.

Q: Which “hERG current change (%, negative = inhibition) at 10uM” value does the source give for `O=C(COC(=O)/C=C/c1ccccc1)Nc1cccnc1Cl` here?
A: Its value is -0.586%.

Q: With `Cc1nn(C)c(C)c1/C=N/NC(=O)C(C)(C)Oc1ccc(Cl)cc1` as the molecule, how does the “hERG current change (%, negative = inhibition) at 10uM” value read?
A: Its value is -12.2%.

Q: `Cc1cc(Cl)cc(Cl)c1OCCOc1cccc2cccnc12` was tested. Which “hERG current change (%, negative = inhibition) at 10uM” value did it give?
A: Its value is 8.35%.

Q: Which “hERG current change (%, negative = inhibition) at 10uM” value does the source give for `CCc1ccc(-c2cc(C)no2)cc1S(=O)(=O)NCCc1ccc(OC)c(OC)c1` here?
A: Its value is 1.38%.

Q: With `O=C(CCn1nnnc1CN1CCOCC1)N1CCC(c2ccccc2F)C1` (stereo not drawn) as the molecule, how does the “hERG current change (%, negative = inhibition) at 10uM” value read?
A: Its value is -1.43%.

Q: `CCCCC(NC(=O)Cc1c(C)c2cc3c4c(oc3cc2oc1=O)CCCC4)C(=O)O` (stereo not drawn) was tested. Which “hERG current change (%, negative = inhibition) at 10uM” value did it give?
A: The value was 10.8%.

Q: Which “hERG current change (%, negative = inhibition) at 10uM” value does the source give for `c1ccc(CNc2c3c(nc4ncnn24)CCCC3)nc1` here?
A: The value was -14.5%.

Q: How did the “hERG current change (%, negative = inhibition) at 10uM” value turn out when `Cc1ccc(CNC(=O)CCn2ccc3cc(S(=O)(=O)N4CCCC4)ccc32)cc1` was run?
A: Its value is -12.7%.

Q: `COc1ccc(N2CCN(c3ccc(C(=O)O)cc3[N+](=O)[O-])CC2)cc1` was tested. Which “hERG current change (%, negative = inhibition) at 10uM” value did it give?
A: Its value is 11%.

Q: How did the “hERG current change (%, negative = inhibition) at 10uM” value turn out when `COc1ccc(CC(=O)Nc2c3c(nn2C(C)(C)C)CS(=O)C3)cc1` (stereo not drawn) was run?
A: The value was 9.2%.

Q: For `COCCCNS(=O)(=O)c1ccc2c(c1)OCCO2`, which “hERG current change (%, negative = inhibition) at 10uM” value is on record?
A: Its value is 6.53%.

Q: With `Cc1ccc(C(=O)N2CCCC(CCC(=O)N3CCN(c4ccccn4)CC3)C2)cc1` (stereo not drawn) as the molecule, how does the “hERG current change (%, negative = inhibition) at 10uM” value read?
A: Its value is -9.9%.

Q: Which “hERG current change (%, negative = inhibition) at 10uM” value does the source give for `O=C(Oc1ccccc1C(=O)N1CCOCC1)c1ccc(F)cc1` here?
A: Its value is 9.44%.

Q: `COc1ccc(NCc2nc3ccccc3n2C)cc1` was tested. Which “hERG current change (%, negative = inhibition) at 10uM” value did it give?
A: Its value is -2.21%.

Q: Which “hERG current change (%, negative = inhibition) at 10uM” value does the source give for `COc1cc2cc(C(c3nnnn3C3CCCC3)N3CCCCCC3)c(=O)[nH]c2cc1OC` (stereo not drawn) here?
A: Its value is -13.7%.

Q: With `O=C(c1ccc2c(c1)OCO2)N1CCCC(c2ccccc2)C1` (stereo not drawn) as the molecule, how does the “hERG current change (%, negative = inhibition) at 10uM” value read?
A: Its value is -3.89%.

Reference: publication PMC4336329 (PLoS ONE, 2015)
